Experimental data taken from the supplement of paper PMC10126150.
Sequences with one replicate were seen in a single cluster, so their values are uncertain.

Test system: ATP
Test: switch fluorescence ratio, 500 uM ATP over buffer (Cy3 cluster intensity, sum of 5 cycles each) (fold (ratio)); higher = stronger signal-on switching upon ATP binding; sequences stand for … in TCGTCGGCAGCGTCAGATGTGTATAAGAGACAGTTTTTTTTTTTTTTTTTTTTTTTTT…TC
Conditions: aptamer strand: ATP DNA aptamer (quencher-CACCTGGGGGAGTATTGCGGAGGAAGG + anchor), 100 nM annealed; ATP concentration: 500 uM; one replicate
In short: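 The quencher-labelled ATP aptamer, at 100 nM, was annealed to Cy3-labelled switching-strand clusters on a modified Illumina MiSeq flow-cell. The clusters were imaged in selection buffer, then after 15 min with 500 uM ATP at 22 °C, and this buffer/ATP cycle ran five times with NaOH stripping and re-annealing between runs. Per-cluster fluorescence ratios, summed target-cycle over summed buffer-cycle Cy3 intensity, were averaged per switch-domain sequence. Clusters outside 100-1000 RFU were excluded.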
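Also: ATP exposure 15 min at 22 °C before imaging.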

Sequence	switch fluorescence ratio
TTTTCTGCTG	1.06
AACGAAGGGG	1.05
ACTTGCTGTA	0.958
ACTTCTATAC	1.63
TAGAATATCA	0.987
TGAAACGGTC	1.14
TATTGATTAC	1.07
GACGGAACTC	1.51
GGCGCAGTGC	2.89
TCTTTTTCGA	1
TGGACGATAG	1.01
AGGCTTCAG	1
GACTGTTGTG	1
AGGTGAAAGC	0.965
TTGGTGAGAC	1.09
GAGGGAGACG	1.02
TGTCATCAA	0.96
CCTCATCTGT	1.09
AGAGCTGAAG	0.991
TGGTGTCTTT	1.01
ATCATGTCCT	1.07
CATTCGTCAC	1.34
CGCGCTTACG	1.15
TTTAGCTCGT	0.978
CCAGGACGCC	1.04

Sequence	switch fluorescence ratio
TCGGGGAAAC	1.03
GCATGTGCTC	1.12
CACGTAGGGC	1.01
TGGGGTCCCG	0.961
GTTTAACCGT	1.02
GTGGCCAGTT	1.03
ATCCAGTCGG	1.03
GCTGCGAAGC	1.01
AAATGCGCAT	0.984
AAGGGCACAC	0.991
GCAGCGTGTA	1.01
AGGCATTCCC	1.06
TTCTTACGTT	1.01
AGGGAAGAGT	0.961
TGGTAACTAG	1.02
CGGTAACCGA	0.999
AAGTTCTTAC	0.992
ATTTCGCATA	1.62
TACGCATGG	1.25
CGGTAGATTT	1.01
GAGTTAAAAT	1.04
ATCCTGGAT	0.967
GTAGCGGGG	0.997
TACTGTTCAA	0.981
GTGACCTCAG	1

Sequence	switch fluorescence ratio
CATTAGAGAA	1.02
CCACGGTCCG	0.986
CGGGCAGTCG	1.02
ATTGCCAATC	0.996
GACACTCTGA	0.999
ACGGCTAGGT	1.06
GATGTCCTAT	0.993
AAGTGTTTAG	0.961
TGCCTCTGTC	1.06
GCGCTTAGTG	1.11
CTGTTGGTTG	1.01
AGTACCCACC	1.54
ATGAAGCGC	1.08
CTAGTTTATA	0.982
ATATTGTGAT	0.99
GACTCGCCCC	1.3
TAGGTCGCTC	1.01
AATTGATGAT	1.01
TTGTTATG	0.988
AGGTGGTTAG	1.04
CAGGATGACA	0.996
GATAGGAAAG	0.978
CTGTACTATG	0.977
ATTAGTGAGT	0.958
GCGGCGGGTA	1.05

Sequence	switch fluorescence ratio
CGTAACGAAT	1.01
GTAAAACCCT	1.12
GCAGGCCTCT	0.956
TCCCTTCTGC	1.05
CTCCTGTACT	1.87
GTGGTGGTAG	0.999
CACGAATCGA	0.996
TATAAGTAAA	1.12
ATACAAAACC	1.03
AACTAGGGTC	0.988
CAGGCATTAA	1.05
CGGCAACAGT	1.12
CTCTACGAGT	1.01
GTCAGGGCGC	0.963
TGTATGCTCC	1.05
GGACTACCCT	1.1
CCCTCTGGAA	1.55
TCCAAGTTGT	0.997
TTCAAATACT	1.11
ATCACGAACG	1.3
GCTGTGACCT	1.15
TCTGTGCGTT	1.05
CGATCTGGCA	0.992
GCAAGACCCG	1.2
ACGGGGAGGA	1.04

Sequence	switch fluorescence ratio
ATGGTGCCGG	1.06
CCTGGGTGAG	1.19
GGATTTTACC	1.03
AGAAAACGTT	1.02
TGCTGGTGGG	0.944
AGATAACGGA	1.04
ACTGTTACCC	1.38
ACGTTATCCC	1.13
CGCCTTAGGA	1.01
CAAACCTGTG	1.09
CTAATAAGAT	0.983
GGATGTGATG	0.986
TTCCTTCCGT	2.23
AGTTACAGCA	1.04
TGTTCTGTGG	0.971
GATGGCCCAT	1.05
GCCATATCGA	1
TGAAAGCATC	1.08
CACTAAGGTA	1.03
GGATGCAACT	1.01
ATAGGGGATG	1
GGGGCGTTG	1.01
TGAAGCGTGA	1
TAGATAAGTG	0.976
AGAATGGGAC	1.01

Sequence	switch fluorescence ratio
GTTCGGGTAC	1.05
CTTCCATGGT	1.05
AGGTGTCCCG	0.948
CGGCATCTTA	1.01
TTCTTTGAGG	1.04
ATATGGATCA	1.01
GAAACACTCC	1.25
TTCAGCTCGA	1.11
GAGATGTTTG	0.999
GTTTCTTGTC	0.992
TTGACACGGA	1.09
CTCATAGGAC	1.05
ACCTTTTGAG	1.01
ACGGGCGTTT	0.998
ATGGGTCATG	0.958
GAAGTCATAG	1.08
AAATTAGTGA	0.992
GTGCGGCATA	0.977
CCGTGCCGCT	1
TGGGACAAGT	1.04
CTTACTTTTT	1
AGGATTATGG	1.01
GTAATCAGTC	0.991
TTCATGCACT	1.13
GACCGACCAT	1.3

Sequence	switch fluorescence ratio
GTCCTACTCT	0.953
CCACGATAAA	1.05
GTATTTAGTA	0.984
CAACTGGTGA	1.08
GGACGTGAGG	0.957
ACTCAATACT	2.35
CTCGATAAGG	1
TGGGCCGACG	1.06
GGTTATTGCC	1.06
CAATGGTCTG	0.983
CCACGATTCC	1.17
GTGATGGGAA	1.04
GTAACTTGGG	1
GGAGTGTTTG	0.953
TACTAAATAT	0.987
AGGTATACAG	1
AATCGATTGT	1.01
AGCAGTACGG	2.06
GGTACACGGT	1.01
GGAACCTATC	1.16
GTGAGTCAGT	0.955
GAATCTTTGA	0.991
ATGTTGCCAT	0.949
GAATTCGTCA	1.01
CAGCGTGATG	1

Sequence	switch fluorescence ratio
CCTATGTCGC	1.03
GTGAATTAGG	1.03
GTGTTGCAAG	1.06
ACCCCATTGT	1.11
AGAGTTCTGA	1.02
CATGTCGGTC	1.05
ATAGAGTTTT	0.969
TGGGTGATGC	1.06
TTTTCTGAAG	1
AGGGTCTTTG	0.989
CCAGAGCGGA	2.5
CGTCCTTGAA	0.988
GACGGAAAGA	1.03
CAGGGCATGT	0.987
GCTATAATAT	1.21
TTGGGTGGA	0.974
ACTATTGTCG	0.992
AGTCCTAGAG	1
CTCATCAAAC	2.41
TTAACTGAGA	1.03
ACTTGGCTT	1.02
GCGACACAGG	1.58
CGAACCCCGT	0.947
CGAGGGACAA	1.2
CGGTAAAGTA	0.966
